Assay results as given in the supplement of paper PMC10126150.
Sequences with one replicate were seen in a single cluster, so their values are uncertain.
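Further: ATP exposure 15 min at 22 °C before imaging.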

What follows are sequences tested on ATP (assay: switch fluorescence ratio, 500 uM ATP over buffer (Cy3 cluster intensity, sum of 5 cycles each) (fold (ratio)); higher = stronger signal-on switching upon ATP binding; sequences stand for … in TCGTCGGCAGCGTCAGATGTGTATAAGAGACAGTTTTTTTTTTTTTTTTTTTTTTTTT…TC). Conditions: aptamer strand: ATP DNA aptamer (quencher-CACCTGGGGGAGTATTGCGGAGGAAGG + anchor), 100 nM annealed; ATP concentration: 500 uM; one replicate.
Summary of the method: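 Clusters with intensities outside 100-1000 RFU were excluded. The remaining Cy3-labelled switching-strand clusters on a modified Illumina MiSeq flow-cell had been annealed to 100 nM quencher-labelled ATP aptamer and imaged in selection buffer, then after 15 min with 500 uM ATP at 22 °C, for five cycles separated by NaOH stripping and re-annealing. The fluorescence ratio, averaged per switch-domain sequence, is each cluster's summed target-cycle Cy3 intensity over its summed buffer-cycle Cy3 intensity.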
GTTTAGTTTT gave a switch fluorescence ratio of 1.03. Work on GTTTATGAAG yielded a switch fluorescence ratio of 0.959. GTTTATGGGA gave a switch fluorescence ratio of 0.963. GTTTCAACAG gave a switch fluorescence ratio of 1.04. GTTTCAGTGC was tested, and the switch fluorescence ratio was 1. In the case of GTTTCCACTG, the switch fluorescence ratio is reported as 0.943. GTTTCCCTCT was tested, and the switch fluorescence ratio was 0.987. Sequence GTTTCCGGTG has a switch fluorescence ratio of 1.16. GTTTCGCTAT showed a switch fluorescence ratio of 1.19. GTTTGAAAGG showed a switch fluorescence ratio of 0.982. GTTTGACGTT showed a switch fluorescence ratio of 1. Work on GTTTGGACCA yielded a switch fluorescence ratio of 1. GTTTGGACGT showed a switch fluorescence ratio of 0.99. Work on GTTTGGTAC yielded a switch fluorescence ratio of 1.03. Sequence GTTTGTAAT has a switch fluorescence ratio of 0.988. GTTTGTCGGC was tested, and the switch fluorescence ratio was 0.893. Sequence GTTTGTTGCA has a switch fluorescence ratio of 1. GTTTTAAGG gave a switch fluorescence ratio of 0.967. GTTTTAGATG showed a switch fluorescence ratio of 0.983. For GTTTTCACCC, the switch fluorescence ratio was 0.983. Sequence GTTTTCCAGA has a switch fluorescence ratio of 1.02. Work on GTTTTTAAGC yielded a switch fluorescence ratio of 0.953. In the case of GTTTTTTAT, the switch fluorescence ratio is reported as 0.979. With GTTTTTTTAC the switch fluorescence ratio was 1.07. In the case of TAAAAACACC, the switch fluorescence ratio is reported as 1.15. Sequence TAAAAAGAAC has a switch fluorescence ratio of 1.01. TAAAAATGCT was tested, and the switch fluorescence ratio was 0.968. With TAAAACACTT the switch fluorescence ratio was 1.02. Work on TAAAACGAGT yielded a switch fluorescence ratio of 1.03. For TAAAACGGAC, the switch fluorescence ratio was 1.18. With TAAAACGGTC the switch fluorescence ratio was 1.11. TAAAACGTGT was tested, and the switch fluorescence ratio was 1.01. In the case of TAAAACTGGT, the switch fluorescence ratio is reported as 1.07. TAAAAGTCGA was tested, and the switch fluorescence ratio was 1.02. TAAAAGTTGT was tested, and the switch fluorescence ratio was 0.971. In the case of TAAAATCAGC, the switch fluorescence ratio is reported as 0.961. TAAAATGGAG was tested, and the switch fluorescence ratio was 0.968. Work on TAAACAGTAA yielded a switch fluorescence ratio of 1.01. TAAACCCTTT gave a switch fluorescence ratio of 1.02. TAAACGCCCC gave a switch fluorescence ratio of 1.26. With TAAACGGCGG the switch fluorescence ratio was 1.01. TAAACTCTCG gave a switch fluorescence ratio of 0.977. With TAAACTTATT the switch fluorescence ratio was 1.01. Sequence TAAAGAACCG has a switch fluorescence ratio of 1.02. Sequence TAAAGAAGTA has a switch fluorescence ratio of 1.01. TAAAGCGG showed a switch fluorescence ratio of 0.988. In the case of TAAAGCTCG, the switch fluorescence ratio is reported as 1.04. Work on TAAAGGATTT yielded a switch fluorescence ratio of 0.981. TAAAGGCGT showed a switch fluorescence ratio of 1.03. TAAAGGCGTC showed a switch fluorescence ratio of 1.04. TAAAGGCTGA was tested, and the switch fluorescence ratio was 1.05. TAAAGGCTGT gave a switch fluorescence ratio of 1.02. TAAAGGGGT gave a switch fluorescence ratio of 0.993. For TAAAGGGTGA, the switch fluorescence ratio was 1.04. TAAAGGTACG was tested, and the switch fluorescence ratio was 0.948. TAAAGTCAGC was tested, and the switch fluorescence ratio was 1.06. With TAAAGTCGAC the switch fluorescence ratio was 0.955. TAAAGTTTCT was tested, and the switch fluorescence ratio was 0.95. Work on TAAATAATCC yielded a switch fluorescence ratio of 1.9. For TAAATACCGT, the switch fluorescence ratio was 1.1. For TAAATCTT, the switch fluorescence ratio was 1.03. TAAATGATT gave a switch fluorescence ratio of 1. TAAATGGTTA showed a switch fluorescence ratio of 0.99. With TAAATTCTAA the switch fluorescence ratio was 1. Work on TAAATTTCTA yielded a switch fluorescence ratio of 1.01. Sequence TAACAATGAT has a switch fluorescence ratio of 0.976. TAACAATTCA showed a switch fluorescence ratio of 1.04. Work on TAACACGACT yielded a switch fluorescence ratio of 1.07. Sequence TAACACGAGG has a switch fluorescence ratio of 1.07. Sequence TAACACGGTT has a switch fluorescence ratio of 0.994. Sequence TAACAGAATG has a switch fluorescence ratio of 1.07. TAACAGTATC was tested, and the switch fluorescence ratio was 1.06. For TAACATATCG, the switch fluorescence ratio was 0.988. TAACATGCTG gave a switch fluorescence ratio of 1.04. In the case of TAACATTATT, the switch fluorescence ratio is reported as 0.983. TAACCAGACG was tested, and the switch fluorescence ratio was 1.1. Sequence TAACCCATTT has a switch fluorescence ratio of 0.992. In the case of TAACCTCAC, the switch fluorescence ratio is reported as 1.35. For TAACCTCTAC, the switch fluorescence ratio was 1.33. TAACCTTGGG was tested, and the switch fluorescence ratio was 1.03. Work on TAACGATATC yielded a switch fluorescence ratio of 1.1. Sequence TAACGCCCCG has a switch fluorescence ratio of 1.41. With TAACGCCGT the switch fluorescence ratio was 0.989. Sequence TAACGCGACC has a switch fluorescence ratio of 1.58. With TAACGCTATA the switch fluorescence ratio was 1.73. Work on TAACGGGTTC yielded a switch fluorescence ratio of 1.01. Sequence TAACGTAACT has a switch fluorescence ratio of 1.11. Sequence TAACTACATT has a switch fluorescence ratio of 1.04. TAACTACTGC was tested, and the switch fluorescence ratio was 0.98. TAACTGAATC was tested, and the switch fluorescence ratio was 1.06. With TAACTGATGC the switch fluorescence ratio was 0.993. TAACTGGCGC gave a switch fluorescence ratio of 1.05. In the case of TAACTTGGTG, the switch fluorescence ratio is reported as 1.03. In the case of TAAGAAATAC, the switch fluorescence ratio is reported as 2.68. TAAGAATAGG showed a switch fluorescence ratio of 0.953. With TAAGACACGC the switch fluorescence ratio was 1.03. TAAGACGGTG showed a switch fluorescence ratio of 1.02. In the case of TAAGACGTTG, the switch fluorescence ratio is reported as 1.01. Work on TAAGAGAAGG yielded a switch fluorescence ratio of 0.973. TAAGAGCGAA gave a switch fluorescence ratio of 0.971. TAAGAGCGCG gave a switch fluorescence ratio of 0.984. In the case of TAAGAGCTCA, the switch fluorescence ratio is reported as 0.991. TAAGATCTGC gave a switch fluorescence ratio of 0.951. Work on TAAGATGGAA yielded a switch fluorescence ratio of 1.01. Work on TAAGCAGATC yielded a switch fluorescence ratio of 1.08. In the case of TAAGCAGGTA, the switch fluorescence ratio is reported as 1.04. For TAAGCGACAG, the switch fluorescence ratio was 0.97. With TAAGCGCTGT the switch fluorescence ratio was 1.01. TAAGCGGTCG showed a switch fluorescence ratio of 1.05. TAAGGACCTG was tested, and the switch fluorescence ratio was 0.923. Work on TAAGGAGAAG yielded a switch fluorescence ratio of 1.02. TAAGGAGGGA showed a switch fluorescence ratio of 1.01. For TAAGGCCAGC, the switch fluorescence ratio was 1.02. TAAGGCCATA was tested, and the switch fluorescence ratio was 1.01. Work on TAAGGGCGTA yielded a switch fluorescence ratio of 1. Sequence TAAGGGGCGA has a switch fluorescence ratio of 0.952. TAAGGGTGCG gave a switch fluorescence ratio of 0.958. Work on TAAGGTAACC yielded a switch fluorescence ratio of 1.02. TAAGGTCTAC was tested, and the switch fluorescence ratio was 0.995. For TAAGTAGGTG, the switch fluorescence ratio was 1.06. In the case of TAAGTCGCTG, the switch fluorescence ratio is reported as 1.01. TAAGTCGTTA was tested, and the switch fluorescence ratio was 1.02. With TAAGTCTATT the switch fluorescence ratio was 1.03. Sequence TAAGTGATAC has a switch fluorescence ratio of 2.8. Sequence TAAGTTAAGA has a switch fluorescence ratio of 1.05. TAAGTTCC was tested, and the switch fluorescence ratio was 1.92. TAATAAGATA was tested, and the switch fluorescence ratio was 0.973. In the case of TAATAAGGAT, the switch fluorescence ratio is reported as 0.947. For TAATACAAAC, the switch fluorescence ratio was 1.15. TAATACAGGT gave a switch fluorescence ratio of 1.07. TAATACGAGG was tested, and the switch fluorescence ratio was 0.975. For TAATACTAGT, the switch fluorescence ratio was 1.01. In the case of TAATAGGCG, the switch fluorescence ratio is reported as 0.927. TAATAGGTAC showed a switch fluorescence ratio of 0.976. In the case of TAATATCTAA, the switch fluorescence ratio is reported as 0.998. With TAATATGA the switch fluorescence ratio was 1. With TAATATGAT the switch fluorescence ratio was 0.981. TAATATTCA showed a switch fluorescence ratio of 1.04. Work on TAATCAGCCA yielded a switch fluorescence ratio of 0.965. TAATCAGGG gave a switch fluorescence ratio of 0.946. For TAATCCCATC, the switch fluorescence ratio was 1.08. TAATCGCGGT gave a switch fluorescence ratio of 1.01. Sequence TAATCGGCCA has a switch fluorescence ratio of 1.06. TAATCTGGGT was tested, and the switch fluorescence ratio was 0.93. Work on TAATCTGTAT yielded a switch fluorescence ratio of 0.983. For TAATCTGTTG, the switch fluorescence ratio was 1.01. Work on TAATGAAGGT yielded a switch fluorescence ratio of 0.966. With TAATGACGGT the switch fluorescence ratio was 0.985. In the case of TAATGATAGG, the switch fluorescence ratio is reported as 0.988. In the case of TAATGATCCG, the switch fluorescence ratio is reported as 1.08. TAATGCGAAG gave a switch fluorescence ratio of 1.01. TAATGGAATG was tested, and the switch fluorescence ratio was 1.03. With TAATGGCAGC the switch fluorescence ratio was 1.04. Work on TAATGGGAG yielded a switch fluorescence ratio of 0.991.
